# Assay results as given in the supplement of paper PMC8728848.
# This is one part of the list.
# How the values were obtained:
# Assay in all cases: glycan array binding signal (z-score within array); higher = stronger binding
# Conditions in all cases: glycan notation: IUPAC condensed, linker removed
# [1] = biological target: Neu5Ac(a2-3)Gal(b1-4)[Fuc(a1-3)]GlcNAc(b1-3)Gal(b1-4)[Fuc(a1-3)]GlcNAc(b1-3)Gal(b1-4)[Fuc(a1-3)]GlcNAc
# Outline: (§1)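 The binding signal is a Z-score computed within each array and averaged over linkers. Arrays of the same protein sequence at different concentrations or buffers were also averaged together. Data originate from 3228 arrays in the Consortium for Functional Glycomics database, kept only where the protein sequence was available.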
# [2] = biological target: Neu5Ac(a2-3)Gal(b1-4)[Fuc(a1-3)]GlcNAc6S
# Outline: as §1
# [3] = biological target: Neu5Ac(a2-3)Gal6S(b1-4)GlcNAc
# Outline: as §1
# [4] = biological target: Neu5Ac(a2-3)Gal6S(b1-4)[Fuc(a1-3)]GlcNAc
# Outline: as §1
# Neu5Ac(a2-3)GalNAc = biological target: Neu5Ac(a2-3)GalNAc
# Outline: as §1
# [5] = biological target: Neu5Ac(a2-3)GalNAc(b1-4)GlcNAc
# Outline: as §1
# [6] = biological target: Neu5Ac(a2-3)[GalNAc(b1-4)]Gal(b1-4)Glc
# Outline: as §1
# [7] = biological target: Neu5Ac(a2-3)[GalNAc(b1-4)]Gal(b1-4)GlcNAc
# Outline: as §1
# [8] = biological target: Neu5Ac(a2-3)[Neu5Ac(a2-6)]GalNAc
# Outline: as §1
# Neu5Ac(a2-6)Gal = biological target: Neu5Ac(a2-6)Gal
# Outline: as §1
# Neu5Ac(a2-6)Gal(b1-4)Glc = biological target: Neu5Ac(a2-6)Gal(b1-4)Glc
# Outline: as §1
# [9] = biological target: Neu5Ac(a2-6)Gal(b1-4)GlcNAc
# Outline: as §1
# [10] = biological target: Neu5Ac(a2-6)Gal(b1-4)GlcNAc(b1-3)Gal(b1-4)GlcNAc
# Outline: as §1
# [11] = biological target: Neu5Ac(a2-6)Gal(b1-4)GlcNAc(b1-3)Gal(b1-4)[Fuc(a1-3)]GlcNAc(b1-3)Gal(b1-4)[Fuc(a1-3)]GlcNAc
# Outline: as §1
# [12] = biological target: Neu5Ac(a2-6)Gal(b1-4)GlcNAc6S
# Outline: as §1
# Neu5Ac(a2-6)GalNAc = biological target: Neu5Ac(a2-6)GalNAc
# Outline: as §1
# [13] = biological target: Neu5Ac(a2-6)GalNAc(b1-4)GlcNAc
# Outline: as §1
# Neu5Ac(a2-8)Neu5Ac = biological target: Neu5Ac(a2-8)Neu5Ac
# Outline: as §1
# [14] = biological target: Neu5Ac(a2-8)Neu5Ac(a2-3)Gal(b1-4)Glc
# Outline: as §1
# [15] = biological target: Neu5Ac(a2-8)Neu5Ac(a2-3)[GalNAc(b1-4)]Gal(b1-4)Glc
# Outline: as §1
# [16] = biological target: Neu5Ac(a2-8)Neu5Ac(a2-8)Neu5Ac
# Outline: as §1
# [17] = biological target: Neu5Ac(a2-8)Neu5Ac(a2-8)Neu5Ac(a2-3)Gal(b1-4)Glc
# Outline: as §1
# [18] = biological target: Neu5Ac(a2-8)Neu5Ac(a2-8)Neu5Ac(a2-3)[GalNAc(b1-4)]Gal(b1-4)Glc
# Outline: as §1
# [19] = biological target: Neu5Ac(a2-8)Neu5Ac(a2-8)Neu5Ac(a2-8)Neu5Ac(a2-3)[GalNAc(b1-4)]Gal(b1-4)Glc
# Outline: as §1
# Neu5Ac(b1-6)GalNAc = biological target: Neu5Ac(b1-6)GalNAc
# Outline: as §1
# [20] = biological target: Neu5Ac(b2-6)Gal(b1-4)GlcNAc
# Outline: as §1
# [21] = biological target: Neu5Ac9Ac(a2-6)Gal(b1-4)GlcNAc
# Outline: as §1
# [22] = biological target: Neu5Gc(a2-3)Gal(b1-3)GlcNAc
# Outline: as §1
# [23] = biological target: Neu5Gc(a2-3)Gal(b1-3)[Fuc(a1-4)]GlcNAc
# Outline: as §1
# Neu5Gc(a2-3)Gal(b1-4)Glc = biological target: Neu5Gc(a2-3)Gal(b1-4)Glc
# Outline: as §1
# [24] = biological target: Neu5Gc(a2-3)Gal(b1-4)GlcNAc
# Outline: as §1
# [25] = biological target: Neu5Gc(a2-3)Gal(b1-4)[Fuc(a1-3)]GlcNAc
# Outline: as §1
# [26] = biological target: Neu5Gc(a2-6)Gal(b1-4)GlcNAc
# Outline: as §1
# Neu5Gc(a2-6)GalNAc = biological target: Neu5Gc(a2-6)GalNAc
# Outline: as §1
binder,measurement,setting,value
FaeGad (Escherichia coli) (protein) WMTGDFNGSVDIGGSITADDYRQKWEWEVGTGLNGFGSVLNDLTNGGTKLTITVTGNKPILLGRTKEAFATPVTSGVDGIPHIAFTDYEGASVELRNPDGETEKGLTYFVLPMKNAEGTKVGSVKVNASYAGALGRGGVTSADGELMSLFAEGSHAIFYGGLPTNVKNSELKGGSAAAARTELFGSLSKNDILGQIQRVNANITSLVNVPGSFNENMAYTDGSVVSVAYALGIANGQTIEATFNQAVTTSTQWSAPLNVAITYY,glycan array binding signal (z-score),[1],-0.187
same,glycan array binding signal (z-score),[2],-0.39
same,glycan array binding signal (z-score),[3],0.808
same,glycan array binding signal (z-score),[4],-0.253
same,glycan array binding signal (z-score),Neu5Ac(a2-3)GalNAc,-0.452
same,glycan array binding signal (z-score),[5],-0.376
same,glycan array binding signal (z-score),[6],-0.488
same,glycan array binding signal (z-score),[7],-0.319
same,glycan array binding signal (z-score),[8],-0.465
same,glycan array binding signal (z-score),Neu5Ac(a2-6)Gal,-0.48
same,glycan array binding signal (z-score),Neu5Ac(a2-6)Gal(b1-4)Glc,-0.414
same,glycan array binding signal (z-score),[9],-0.474
same,glycan array binding signal (z-score),[10],-0.289
same,glycan array binding signal (z-score),[11],-0.414
same,glycan array binding signal (z-score),[12],-0.41
same,glycan array binding signal (z-score),Neu5Ac(a2-6)GalNAc,-0.088
same,glycan array binding signal (z-score),[13],-0.362
same,glycan array binding signal (z-score),Neu5Ac(a2-8)Neu5Ac,-0.344
same,glycan array binding signal (z-score),[14],-0.319
same,glycan array binding signal (z-score),[15],-0.388
same,glycan array binding signal (z-score),[16],-0.377
same,glycan array binding signal (z-score),[17],-0.341
same,glycan array binding signal (z-score),[18],-0.403
same,glycan array binding signal (z-score),[19],-0.335
same,glycan array binding signal (z-score),Neu5Ac(b1-6)GalNAc,0.051
same,glycan array binding signal (z-score),[20],-0.459
same,glycan array binding signal (z-score),[21],-0.506
same,glycan array binding signal (z-score),[22],-0.449
same,glycan array binding signal (z-score),[23],-0.179
same,glycan array binding signal (z-score),Neu5Gc(a2-3)Gal(b1-4)Glc,-0.432
same,glycan array binding signal (z-score),[24],-0.457
same,glycan array binding signal (z-score),[25],-0.436
same,glycan array binding signal (z-score),[26],-0.477
same,glycan array binding signal (z-score),Neu5Gc(a2-6)GalNAc,0.243
